Results from PubChem BioAssay AID686979 (National Center for Advancing Translational Sciences (NCATS), 2013).
Hit rate of the full screen: of about 420,000 compounds, about 50,000 (12%) were called active. Inconclusive results, whose numbers are uncertain, are shown with a selection of clear calls. Calls come from the whole dose curve; as a rule, active = well fitted inhibition curve with a large enough effect; inconclusive = small, poorly fitted or top-dose-only effect; inactive = flat fitted curve, though single readings scatter. Potencies of inconclusive entries are left out as doubtful fits.

Assay: qHTS for Inhibitors of human tyrosyl-DNA phosphodiesterase 1 (TDP1): qHTS in cells in presence of CPT; note: nearly all actives have a fitted effect of over 55% in size
Settings: chicken DT40 Tdp1-/-;hTDP1 cells + 20 nM CPT, ATP luminescence, 48 h; activity change, negative = growth inhibition: at 46.2 µM (top of the series) unless noted
In short: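 Chicken DT40 Tdp1-/- cells complemented with human TDP1, 400 cells/well, exposed to compounds plus 20 nM camptothecin for at least 48 h at 37 C; viability read as ATP content by CellTiter-Glo luminescence.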
% is set by controls: 0 for no effect and ±100 for the full control effect; potency is the fitted concentration of half-maximal effect; tags give direction and shape of the fitted curve.

SMILES	Potency	activity change, negative = growth inhibition
COc1ccccc1N1CCN(C(=O)c2ccc3ncsc3c2)CC1	active: 6.51 µM	
CC(C)(C)OC(=O)N1CCOCCOCCN(C(=O)OC(C)(C)C)CCOCC1	inactive	
COc1cc(-c2cc(C)c3c(OC)ccc(OC)c3n2)cc2c1OCCN(Cc1cn(C)nc1C)C2		inactive: 32.7% [at 9.04 µM]
Cc1ccc(-n2ncc(C(=O)NCc3ccco3)c2C2CCN(C(=O)OC(C)(C)C)CC2)cc1	active: 18.4 µM	
Cc1cc(Cl)c2oc(C(=O)N(C)C3CCOC3)c(C)c2c1 (configuration not stated)	inconclusive [inhibitor, single point]	
Cc1cccc(/C=N/NC(=O)CNc2cccc3ccccc23)n1	active: 18.4 µM	
O=C(Nc1nnc(C2CC2)s1)C1=NN(C2CCS(=O)(=O)C2)C(=O)CC1 (configuration not stated)	inactive	
CN(C)/C=N/c1nc2nccc(-c3ccccn3)n2n1	inactive	
Cc1ccc(Nc2ncnc3sccc23)c(C)c1	inactive	
Cc1cc(NC(=O)CSCC(=O)Nc2ccccc2N2CCCCC2)no1	inactive	
c1ccc(-c2nc3cnccn3c2Nc2ccc3c(c2)OCCO3)cc1	inconclusive [inhibitor, single point]	
CCOC(=O)N1CCC(NC(=O)C2=CCN(S(=O)(=O)c3ccc(OC)cc3)CC2)CC1	inconclusive [inhibitor, single point]	
Cn1c(=O)c2c(-c3ccc(Cl)cc3)n(CCc3ccccc3)cc2n(C)c1=O	inconclusive [inhibitor, single point]	
Cc1ccc2nc(Cl)c3cc(C(=O)N4CCCCC4)sc3c2c1	inconclusive [inhibitor, single point]	
COc1c(F)c(F)c(C(=O)Nc2ccc(N3CCN(C(C)=O)CC3)c(Cl)c2)c(F)c1F	inconclusive [inhibitor, single point]	
O=C1CNC(=S)N1CCc1ccc(O)c(O)c1	inconclusive [inhibitor, single point]	
C#CC(=O)N(c1ccc(OC)cc1OC)C(C(=O)NC1CCCC1)c1cccs1 (configuration not stated)	inconclusive [inhibitor, full curve, poor fit]	
COc1ccc(N2CCN(Cc3nc4c(c(=O)[nH]c(=O)n4C)n3Cc3ccccc3F)CC2)cc1	inactive	
Cn1nnc2c(NCc3c(F)cccc3F)ncnc21	inactive	
COc1cc(C(=O)N2CCN(C(=O)c3cc(-c4ccc(Br)cc4)n[nH]3)CC2)cc(OC)c1OC	active: 20.6 µM	
CN1CCN(C(c2ccc(F)cc2)c2nnnn2Cc2cccs2)CC1 (configuration not stated)	inactive	
CN(C1CCCCC1)C(CNS(=O)(=O)c1ccccc1)c1ccccc1 (configuration not stated)	inconclusive [inhibitor, single point]	
COc1ccc(N(C(=O)Cn2nnc3ccccc32)C(C(=O)NCc2ccccc2)c2ccc(F)cc2)cc1 (configuration not stated)	inconclusive [inhibitor, single point]	
CCc1ccc(C(=O)CC2(O)C(=O)N(CCc3ccccc3)c3ccc(Cl)cc32)cc1 (configuration not stated)	active: 18.4 µM	

SMILES	Potency	activity change, negative = growth inhibition
CC1CCCCC12NC(=O)N(CC(=O)N1CCN(Cc3ccc(C#N)cc3)CC1)C2=O (configuration not stated)	active: 16.4 µM	
Cn1c(=O)c2c(nc(SCC(=O)Nc3ccc(F)c(F)c3)n2Cc2ccccc2F)n(C)c1=O	inconclusive [inhibitor, full curve]	
COc1cc(CN(C)C)cc(C=O)c1O	inactive	
c1ccc(CN2CCC(Nc3nc(-c4cccnc4)nc4ccccc34)CC2)cc1	active: 18.4 µM	
CC(=O)N1CCSc2ccc(S(=O)(=O)NCc3ccccc3)cc21	inconclusive [inhibitor, single point]	
CCN(c1ccccc1)S(=O)(=O)c1cccc(C(=O)N2CCN(S(=O)(=O)c3ccccc3)CC2)c1	inconclusive [inhibitor, single point]	
O=C1CCCCCN1CP(=O)(O)CCc1ccccc1	inactive	
Cc1cc(C)cc(N(C(C)C(=O)NC2CCCC2)S(C)(=O)=O)c1 (configuration not stated)	inactive	
O=C(Nc1ccc(Cl)cc1)N(Cc1cccs1)Cc1cccs1	active: 18.4 µM	
CC1CCC(C(O)(C(=O)c2ccccc2)c2ccccc2)C(=O)C1 (configuration not stated)	inconclusive [inhibitor, single point]	
CC(C)CNC(=S)N(CCN(C)C)Cc1cc2cc3c(cc2[nH]c1=O)OCO3	inconclusive [inhibitor, full curve, poor fit]	
COc1ccc(CCNC(=O)C(=O)NCC(c2cccs2)S(=O)(=O)c2ccc(F)cc2)cc1 (configuration not stated)	inconclusive [inhibitor, single point]	
Cc1ccnc(NC(=O)C(Cc2ccccc2)NC(=O)c2ccccc2)c1 (configuration not stated)	inconclusive [inhibitor, single point]	
CCOc1ccccc1NC(=O)CSc1ccc2nnc(-c3cccnc3)n2n1	inactive	
Cc1ccc2c(C(=O)CNC3=NCCS3)c(C)[nH]c2c1	inconclusive [inhibitor, single point]	
CN(C)/C=C/C(=O)c1ccc(C(F)(F)F)cc1F	inactive	
O=C(NCCc1ccc(Cl)cc1)C1CCN(S(=O)(=O)c2ccc3[nH]ccc3c2)CC1	inconclusive [inhibitor, single point]	
CC(NC(C(=O)c1ccccc1)c1ccccc1)c1ccccc1 (configuration not stated)	inactive	
O=C(C(Cc1ccccc1)n1cccc1)N1CCN(C2CCCCC2)CC1 (configuration not stated)	inconclusive [inhibitor, single point]	
Cc1ccc(-c2nc3ncccc3o2)cc1NC(=O)c1sc2ccccc2c1Cl	inconclusive [inhibitor, partial curve]	
CCC1C(=O)NCCN1Cc1ccc2c(c1)CN(Cc1cccc(OC)c1)CCO2 (configuration not stated)		inactive: 11.9% [at 9.04 µM]
Cc1sc2ncn(CC(=O)N3CCOCC3)c(=O)c2c1-c1ccccc1		inconclusive: 0.015% [inhibitor]
COc1cc(/C=C/C(=O)Nc2nnc(CC(C)(C)C)s2)cc(OC)c1OC	inconclusive [inhibitor, single point]	
